In paper PMC9911399, “Two distinct binding modes provide the RNA-binding protein RbFox with extraordinary sequence specificity”:
Numbering of substitutions follows the chain as printed; changes in the protein carry UniProt numbers. The list shows a part of the results.

T1: RBFOX1 RRM (Homo sapiens, UniProt Q9NWB1 109-208)
T1 sequence: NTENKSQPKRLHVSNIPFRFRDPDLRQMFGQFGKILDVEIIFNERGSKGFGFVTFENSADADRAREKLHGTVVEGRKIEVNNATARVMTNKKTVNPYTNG

B1: UCAAGCC (DNA:RNA)
RNA: GGGAGACCGGAAUUCAGAUUGUCCUCAAGCCUUAAAUCCCGUCGUAGCCACCA
DNA 1: CAATCTGAATTCCGGTCTCCC
DNA 2: TGGTGGCTACGACGGGATT
B2: UCCUAUU (DNA:RNA)
RNA: B1 RNA with A27C, A28U, G29A, C30U, C31U
DNA 1: CAATCTGAATTCCGGTCTCCC
DNA 2: TGGTGGCTACGACGGGATT
B3: AACGCUG (DNA:RNA)
RNA: GGGAGACCGGAAUUCAGAUUGUCCAACGCUGUUAAAUCCCGUCGUAGCCACCA
DNA 1: CAATCTGAATTCCGGTCTCCC
DNA 2: TGGTGGCTACGACGGGATT
B4: GCUCAAG (DNA:RNA)
RNA: B3 RNA with A25G, A26C, C27U, G28C, C29A, U30A
DNA 1: CAATCTGAATTCCGGTCTCCC
DNA 2: TGGTGGCTACGACGGGATT
B5: CGUCGUU (DNA:RNA)
RNA: B3 RNA with A25C, A26G, C27U, G28C, C29G, G31U
DNA 1: CAATCTGAATTCCGGTCTCCC
DNA 2: TGGTGGCTACGACGGGATT
B6: UCGCCGC (DNA:RNA)
RNA: B1 RNA with A27G, A28C, G29C, C30G
DNA 1: CAATCTGAATTCCGGTCTCCC
DNA 2: TGGTGGCTACGACGGGATT
B7: UACGGCU (DNA:RNA)
RNA: B3 RNA with A25U, C29G, U30C, G31U
DNA 1: CAATCTGAATTCCGGTCTCCC
DNA 2: TGGTGGCTACGACGGGATT
B8: UGAGAGC (DNA:RNA)
RNA: B1 RNA with C26G, A28G, G29A, C30G
DNA 1: CAATCTGAATTCCGGTCTCCC
DNA 2: TGGTGGCTACGACGGGATT
B9: AUUGAUA (DNA:RNA)
RNA: B3 RNA with A26U, C27U, C29A, G31A
DNA 1: CAATCTGAATTCCGGTCTCCC
DNA 2: TGGTGGCTACGACGGGATT
B10: AGAAUCA (DNA:RNA)
RNA: B1 RNA with U25A, C26G, G29U, C31A
DNA 1: CAATCTGAATTCCGGTCTCCC
DNA 2: TGGTGGCTACGACGGGATT
B11: AGUUCGU (DNA:RNA)
RNA: B3 RNA with A26G, C27U, G28U, U30G, G31U
DNA 1: CAATCTGAATTCCGGTCTCCC
DNA 2: TGGTGGCTACGACGGGATT
B12: ACACGCC (DNA:RNA)
RNA: B1 RNA with U25A, A28C
DNA 1: CAATCTGAATTCCGGTCTCCC
DNA 2: TGGTGGCTACGACGGGATT
B13: UAGCGCA (DNA:RNA)
RNA: B1 RNA with C26A, A27G, A28C, C31A
DNA 1: CAATCTGAATTCCGGTCTCCC
DNA 2: TGGTGGCTACGACGGGATT
B14: AACUUUA (DNA:RNA)
RNA: B3 RNA with G28U, C29U, G31A
DNA 1: CAATCTGAATTCCGGTCTCCC
DNA 2: TGGTGGCTACGACGGGATT
B15: UCGCUUU (DNA:RNA)
RNA: B1 RNA with A27G, A28C, G29U, C30U, C31U
DNA 1: CAATCTGAATTCCGGTCTCCC
DNA 2: TGGTGGCTACGACGGGATT
B16: UGGGGAA (DNA:RNA)
RNA: B1 RNA with C26G, A27G, A28G, C30A, C31A
DNA 1: CAATCTGAATTCCGGTCTCCC
DNA 2: TGGTGGCTACGACGGGATT
B17: UCAGAAG (DNA:RNA)
RNA: B1 RNA with A28G, G29A, C30A, C31G
DNA 1: CAATCTGAATTCCGGTCTCCC
DNA 2: TGGTGGCTACGACGGGATT
B18: CGCGUGC (DNA:RNA)
RNA: B3 RNA with A25C, A26G, C29U, U30G, G31C
DNA 1: CAATCTGAATTCCGGTCTCCC
DNA 2: TGGTGGCTACGACGGGATT
B19: CAUCGGC (DNA:RNA)
RNA: B1 RNA with U25C, C26A, A27U, A28C, C30G
DNA 1: CAATCTGAATTCCGGTCTCCC
DNA 2: TGGTGGCTACGACGGGATT
B20: CGCUAAG (DNA:RNA)
RNA: B3 RNA with A25C, A26G, G28U, C29A, U30A
DNA 1: CAATCTGAATTCCGGTCTCCC
DNA 2: TGGTGGCTACGACGGGATT
B21: AAAGGUA (DNA:RNA)
RNA: B3 RNA with C27A, C29G, G31A
DNA 1: CAATCTGAATTCCGGTCTCCC
DNA 2: TGGTGGCTACGACGGGATT
B22: UUACCCU (DNA:RNA)
RNA: B1 RNA with C26U, A28C, G29C, C31U
DNA 1: CAATCTGAATTCCGGTCTCCC
DNA 2: TGGTGGCTACGACGGGATT
B23: ACGCUCU (DNA:RNA)
RNA: B1 RNA with U25A, A27G, A28C, G29U, C31U
DNA 1: CAATCTGAATTCCGGTCTCCC
DNA 2: TGGTGGCTACGACGGGATT
B24: AAGCUGG (DNA:RNA)
RNA: B3 RNA with C27G, G28C, C29U, U30G
DNA 1: CAATCTGAATTCCGGTCTCCC
DNA 2: TGGTGGCTACGACGGGATT
B25: CAUGAAC (DNA:RNA)
RNA: B3 RNA with A25C, C27U, C29A, U30A, G31C
DNA 1: CAATCTGAATTCCGGTCTCCC
DNA 2: TGGTGGCTACGACGGGATT
B26: AUUUUAG (DNA:RNA)
RNA: B3 RNA with A26U, C27U, G28U, C29U, U30A
DNA 1: CAATCTGAATTCCGGTCTCCC
DNA 2: TGGTGGCTACGACGGGATT
B27: GCUCUUC (DNA:RNA)
RNA: B1 RNA with U25G, A27U, A28C, G29U, C30U
DNA 1: CAATCTGAATTCCGGTCTCCC
DNA 2: TGGTGGCTACGACGGGATT
B28: GGCAACU (DNA:RNA)
RNA: B1 RNA with U25G, C26G, A27C, G29A, C31U
DNA 1: CAATCTGAATTCCGGTCTCCC
DNA 2: TGGTGGCTACGACGGGATT
B29: GCCAAGG (DNA:RNA)
RNA: B3 RNA with A25G, A26C, G28A, C29A, U30G
DNA 1: CAATCTGAATTCCGGTCTCCC
DNA 2: TGGTGGCTACGACGGGATT
B30: CGCGGGU (DNA:RNA)
RNA: B3 RNA with A25C, A26G, C29G, U30G, G31U
DNA 1: CAATCTGAATTCCGGTCTCCC
DNA 2: TGGTGGCTACGACGGGATT
B31: UGGCCCC (DNA:RNA)
RNA: B1 RNA with C26G, A27G, A28C, G29C
DNA 1: CAATCTGAATTCCGGTCTCCC
DNA 2: TGGTGGCTACGACGGGATT

These binders were tested against T1, RBFOX1 RRM (assay: EMSA; HiTS-Eq, 1 nM pool, 10 min; buffer printed only for the single-RNA assays: 10 mM Tris pH 7.5, 150 mM NaCl, 3.4 mM EDTA, 0.001% NP-40, 30 C). Details: tags: His6 N-terminal (pET28a); label: 5' 32P.
Summary of the method: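 Purified wild-type or mutant RbFox RRM at increasing concentrations was equilibrated with 1 nM of 5′-radiolabelled RNA carrying 7 randomized nucleotides for 10 min in 50 µL. Unbound RNA was separated by 8% native PAGE and sequenced. Relative association constants came from read-count changes of each RNA species compared with the control reaction, normalised to the cognate motif.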
For B1, the binding signal was 0.00513 KA relative to UGCAUGU.
B2 was tested, and the binding signal was 0.00283 KA relative to UGCAUGU.
With B3 the binding signal was 0.00777 KA relative to UGCAUGU.
In the case of B4, the binding signal is reported as 0.0107 KA relative to UGCAUGU.
In the case of B5, the binding signal is reported as 0.0131 KA relative to UGCAUGU.
For B6, the binding signal was 0.012 KA relative to UGCAUGU.
For B7, the binding signal was 0.0135 KA relative to UGCAUGU.
With B8 the binding signal was 0.0225 KA relative to UGCAUGU.
B9 was tested, and the binding signal was 0.00614 KA relative to UGCAUGU.
With B10 the binding signal was 0.00374 KA relative to UGCAUGU.
With B11 the binding signal was 0.0166 KA relative to UGCAUGU.
With B12 the binding signal was 0.00554 KA relative to UGCAUGU.
In the case of B13, the binding signal is reported as 0.018 KA relative to UGCAUGU.
B14 was tested, and the binding signal was 0.000524 KA relative to UGCAUGU.
In the case of B15, the binding signal is reported as 0.0132 KA relative to UGCAUGU.
In the case of B16, the binding signal is reported as 0.0174 KA relative to UGCAUGU.
With B17 the binding signal was 0.00595 KA relative to UGCAUGU.
For B18, the binding signal was 0.0241 KA relative to UGCAUGU.
For B19, the binding signal was 0.00665 KA relative to UGCAUGU.
In the case of B20, the binding signal is reported as 0.00892 KA relative to UGCAUGU.
For B21, the binding signal was 0.00508 KA relative to UGCAUGU.
For B22, the binding signal was 0.00311 KA relative to UGCAUGU.
B23 was tested, and the binding signal was 0.00565 KA relative to UGCAUGU.
In the case of B24, the binding signal is reported as 0.0133 KA relative to UGCAUGU.
For B25, the binding signal was 0.00509 KA relative to UGCAUGU.
B26 was tested, and the binding signal was 0.00948 KA relative to UGCAUGU.
For B27, the binding signal was 0.0155 KA relative to UGCAUGU.
B28 was tested, and the binding signal was 0.00583 KA relative to UGCAUGU.
B29 was tested, and the binding signal was 0.013 KA relative to UGCAUGU.
For B30, the binding signal was 0.00704 KA relative to UGCAUGU.
For B31, the binding signal was 0.0181 KA relative to UGCAUGU.
